Over roughly 33,000 sequences, “E-score (-0.5 to 0.5)” has its median near -0.053; the highest 2% begin near 0.37. Some of the results follow.
biological target: Hap1 (UniProt P0CE41); assay: PBM E-score (8-mer binding enrichment) (E-score (-0.5 to 0.5)); higher = stronger / more preferred TF binding; most listed sequences are background and not binding sites; settings: protein concentration: 200 nM; construct: GST-DNA-binding domain
How it was run: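 Detection of bound protein used fluorescent anti-GST, with scans normalised by masliner. The proteins were GST-tagged yeast transcription factors applied at about 100-200 nM to universal all-10-mer Agilent arrays made double-stranded by primer extension. Each ungapped eight-base word, pooled with its reverse complement, was scored with an E-score from the Universal PBM Analysis Suite.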

Sequence of UniProt P0CE41 (P0CE41 whole entry, the tested form may be a part): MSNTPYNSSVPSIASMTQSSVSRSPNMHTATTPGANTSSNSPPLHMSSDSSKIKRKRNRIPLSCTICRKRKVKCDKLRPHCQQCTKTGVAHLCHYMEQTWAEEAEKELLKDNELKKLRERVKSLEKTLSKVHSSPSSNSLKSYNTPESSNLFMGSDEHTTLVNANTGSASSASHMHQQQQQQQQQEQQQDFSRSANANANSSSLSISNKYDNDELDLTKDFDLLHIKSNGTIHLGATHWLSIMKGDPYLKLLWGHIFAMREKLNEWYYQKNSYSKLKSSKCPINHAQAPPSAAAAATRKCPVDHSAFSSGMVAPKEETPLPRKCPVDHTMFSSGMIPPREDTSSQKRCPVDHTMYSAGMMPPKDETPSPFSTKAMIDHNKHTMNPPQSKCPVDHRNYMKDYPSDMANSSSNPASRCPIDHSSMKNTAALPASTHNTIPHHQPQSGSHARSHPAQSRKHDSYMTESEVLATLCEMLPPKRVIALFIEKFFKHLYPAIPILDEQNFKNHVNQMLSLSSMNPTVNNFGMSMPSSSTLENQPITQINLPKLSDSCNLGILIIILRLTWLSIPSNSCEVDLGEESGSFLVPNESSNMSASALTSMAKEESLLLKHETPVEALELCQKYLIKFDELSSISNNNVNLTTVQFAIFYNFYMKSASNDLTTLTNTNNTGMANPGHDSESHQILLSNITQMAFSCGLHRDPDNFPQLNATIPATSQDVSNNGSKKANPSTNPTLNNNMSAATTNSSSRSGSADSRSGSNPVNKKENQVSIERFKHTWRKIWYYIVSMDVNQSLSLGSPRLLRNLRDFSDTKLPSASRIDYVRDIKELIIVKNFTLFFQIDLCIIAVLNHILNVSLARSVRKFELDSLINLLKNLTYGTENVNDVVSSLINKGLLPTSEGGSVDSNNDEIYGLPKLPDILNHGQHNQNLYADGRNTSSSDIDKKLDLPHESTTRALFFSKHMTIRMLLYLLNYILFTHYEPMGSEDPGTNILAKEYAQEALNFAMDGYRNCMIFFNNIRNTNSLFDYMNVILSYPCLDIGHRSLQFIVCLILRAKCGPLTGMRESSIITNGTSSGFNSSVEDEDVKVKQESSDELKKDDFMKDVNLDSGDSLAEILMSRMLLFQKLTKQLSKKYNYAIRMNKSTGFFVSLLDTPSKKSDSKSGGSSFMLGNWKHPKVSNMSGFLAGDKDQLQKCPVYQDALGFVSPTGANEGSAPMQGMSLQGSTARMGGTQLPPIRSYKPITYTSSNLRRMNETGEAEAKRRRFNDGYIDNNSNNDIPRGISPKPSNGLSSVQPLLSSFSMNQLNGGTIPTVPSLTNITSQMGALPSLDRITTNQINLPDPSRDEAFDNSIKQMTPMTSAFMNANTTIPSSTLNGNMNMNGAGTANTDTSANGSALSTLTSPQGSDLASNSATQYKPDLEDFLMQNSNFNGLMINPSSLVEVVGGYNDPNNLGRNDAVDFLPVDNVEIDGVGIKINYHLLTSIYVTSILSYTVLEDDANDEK

Sequence	PBM E-score
CCGAACAC	0.252
GTAGTCAA	-0.219
AAGTATGA	0.00276
CGGGAACC	0.2
AAGTGTTC	-0.00116
GTGTAACA	-0.162
TCGTAAGA	-0.13
ATTGCTAC	-0.0392
AAGAGAAT	0.0433
AGTTAAAA	0.116
GCCCCTAC	-0.0694
GGATAGCC	-0.0145
ACAAGGTA	-0.0805
CCTCGAAG	-0.123
ATAAAGTC	0.00253
AGGTTATA	-0.0688
CCGTAGTA	0.109
GGCTTCAA	-0.0187
ATACTGAT	0.0437
GCTGAACA	-0.105
CAGGGTAC	-0.275
CAGCCGGC	0.331
AACCCGAT	0.375
GGGAGTGA	-0.0645
AGAAGGCT	-0.279

Sequence	PBM E-score
CCTGACCC	0.1
TACGGTAA	0.0382
CAGCGCTA	-0.125
CTAACCAA	-0.0485
GACCCCTC	-0.0953
GACCACAC	-0.197
GCGCGCGC	0.298
GGCCCTAC	0.0583
CTTTGTGA	-0.178
CCTTCTCA	-0.0508
AGCTTTGA	-0.0822
CGGAAGTC	0.305
ACCCGGCC	0.305
AAAGAGTA	-0.136
CCTGAAAG	-0.202
AGGCAACG	-0.00759
GATTGGTA	0.0411
ACAATATG	0.13
CCATAAAA	0.0761
ACATCACC	0.134
AACGCCTG	-0.00879
CACTTACG	0.0631
CTTGAACC	-0.0694
AATATATT	0.0617
TCACAGAA	-0.273

Sequence	PBM E-score
GACAGCCA	-0.149
AACGACGC	-0.171
ACTCTCCA	-0.172
ATCCCTTC	-0.2
CGCCCAAA	-0.057
CAACCCGC	0.0375
GCCAGTGA	-0.171
CGCTGAAC	-0.149
AGCCGCCC	0.146
CTATACTC	-0.0351
CTCGCGGC	0.109
AATTCTTG	-0.198
AGTCGCAC	-0.219
AGTGAGTG	-0.12
CGATTCCC	0.189
ACAAAATA	-0.116
CGTGTAGC	-0.195
CCGAACAG	0.311
ACTCTAAC	-0.113
GATGAATC	0.00529
CAACCCTA	-0.147
ATAGTCGC	0.0221
CGTGGCTC	-0.204
ATGTGAGA	-0.197
ATTACTCG	-0.0133

Sequence	PBM E-score
ATACTGTG	-0.184
ATCATTAC	0.0082
CCGCATTC	0.026
ACCACTCA	-0.302
CCTCGCCC	0.0415
AAGCCAGC	-0.172
CTTCTATC	0.0609
CCGGCCTA	0.288
CGCGGCCA	0.142
GTAGCTTA	-0.0577
CATCCTCC	-0.00263
AGAACTTG	-0.211
AATGGCTG	-0.0579
CCGCCATC	0.0194
TATCTACA	-0.0922
GAGGTAAC	0.184
ACAAGAAC	0.0025
GTTGATTA	-0.092
CAGCACAA	-0.014
ACGGGGCT	0.209
CTAATCAG	-0.111
GGGTCAGA	-0.0904
CTCTACAA	-0.178
AGATACAA	0.0255
CCAACTGC	0.0731

Sequence	PBM E-score
ACAGCGGA	0.147
AAGCGGGA	0.0654
CACCGAGA	0.259
AACCGCAC	0.0423
CGCCCCAG	-0.0209
CCTTGATC	-0.101
ACATGAAG	-0.0999
CACAATGG	-0.0558
CATCATTA	0.0391
TTATATAA	0.156
GAGCATGC	-0.125
AGCGGCGG	0.291
AGCATATA	0.167
ATACTCAC	-0.078
ATGAGGGG	-0.21
CGTACATC	-0.102
GAGTAAGC	-0.0491
CTGTCGCA	-0.0599
ATAACGGC	0.355
ACCAGAAT	-0.208
ATTGCTTA	7e-05
ACACATCG	-0.131
CATAAACG	-0.00967
ACCCGCAT	0.166
ATTTTGTG	-0.0149

Sequence	PBM E-score
GGCGTCAA	-0.0394
CCACAGCG	-0.179
GCCCGCCA	0.195
CAGCTTAG	-0.0798
ATTTGCAC	-0.247
GATTAGAC	0.0444
GCACATGC	-0.053
GGTGCTAC	-0.131
CCGGATTA	0.383
AGCGGACC	0.257
ACCGATCA	0.183
ACTTTGCA	-0.163
TACTCAAA	-0.131
CCGTGTTC	0.185
CCAGCCTA	-0.281
ATTGGTAC	-0.0137
AACGAATC	0.0254
TACATGCA	-0.17
CCCTTCCA	-0.176
GATTGAAC	-0.0782
ACGATATC	0.0796
ACCCAACT	-0.155
AACCCCGC	0.371
AATGCTCG	0.0742
CAAAAACA	-0.215

Sequence	PBM E-score
AATTGTTA	-0.109
CAATAAAC	0.249
AAATTGTC	0.0182
AAGTCCCG	0.211
ACGAGAAA	-0.00338
AGCTTTGC	0.0588
AAGTTAAT	-0.0455
ACATATCC	0.0913
GAGCCTCC	-0.0758
TAGATGCA	-0.177
ACTGTTCC	-0.0163
TGCGGAAA	0.213
CACTAGAG	-0.156
AGTCGCGG	0.0569
ACGTTACA	-0.361
AACAGCGG	0.175
TCTCGAAA	-0.269
GGTGGAAC	-0.127
CGGGCTAG	0.197
GTCCGCAC	0.237
ACGGACGT	0.329
CAATTGCA	-0.136
